{"source": "the supplement of paper PMC8728848", "assay_in_all_cases": "glycan array binding signal (z-score within array); higher = stronger binding", "details_in_all_cases": "glycan notation: IUPAC condensed, linker removed", "key": {"Gal3S4S(b1-4)GlcNAc": {"target": "Gal3S4S(b1-4)GlcNAc", "summary_of_the_method": "(§1)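 The binding signal is a Z-score computed within each array. Data were drawn from 3228 arrays in the Consortium for Functional Glycomics database, restricted to those with a known protein sequence. Scores were averaged over arrays of the same protein sequence at different concentrations or buffers, and over linkers, and negative values can be taken as non-binding.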"}, "Gal3S6S(b1-4)GlcNAc": {"target": "Gal3S6S(b1-4)GlcNAc", "summary_of_the_method": "as §1"}, "Gal3S6S(b1-4)GlcNAc6S": {"target": "Gal3S6S(b1-4)GlcNAc6S", "summary_of_the_method": "as §1"}, "Gal4S(b1-4)GlcNAc": {"target": "Gal4S(b1-4)GlcNAc", "summary_of_the_method": "as §1"}, "Gal4S6S(b1-4)GlcNAc": {"target": "Gal4S6S(b1-4)GlcNAc", "summary_of_the_method": "as §1"}, "Gal6P(b1-4)GlcNAc": {"target": "Gal6P(b1-4)GlcNAc", "summary_of_the_method": "as §1"}, "Gal6S(b1-3)GlcNAc": {"target": "Gal6S(b1-3)GlcNAc", "summary_of_the_method": "as §1"}, "Gal6S(b1-3)GlcNAc6S": {"target": "Gal6S(b1-3)GlcNAc6S", "summary_of_the_method": "as §1"}, "Gal6S(b1-4)Glc": {"target": "Gal6S(b1-4)Glc", "summary_of_the_method": "as §1"}, "Gal6S(b1-4)Glc6S": {"target": "Gal6S(b1-4)Glc6S", "summary_of_the_method": "as §1"}, "Gal6S(b1-4)GlcNAc": {"target": "Gal6S(b1-4)GlcNAc", "summary_of_the_method": "as §1"}, "Gal6S(b1-4)GlcNAc6S": {"target": "Gal6S(b1-4)GlcNAc6S", "summary_of_the_method": "as §1"}, "GalNAc(a1-3)Gal": {"target": "GalNAc(a1-3)Gal", "summary_of_the_method": "as §1"}, "GalNAc(a1-3)GalNAc": {"target": "GalNAc(a1-3)GalNAc", "summary_of_the_method": "as §1"}, "[1]": {"target": "GalNAc(a1-3)GalNAc(b1-3)Gal(a1-4)Gal(b1-4)Glc", "summary_of_the_method": "as §1"}, "[2]": {"target": "GalNAc(a1-3)GalNAc(b1-3)Gal(a1-4)Gal(b1-4)GlcNAc", "summary_of_the_method": "as §1"}, "GalNAc(b1-3)Gal": {"target": "GalNAc(b1-3)Gal", "summary_of_the_method": "as §1"}, "[3]": {"target": "GalNAc(b1-3)Gal(a1-4)Gal(b1-4)GlcNAc", "summary_of_the_method": "as §1"}, "[4]": {"target": "GalNAc(b1-3)Gal(a1-4)Gal(b1-4)GlcNAc(b1-3)Gal(b1-4)Glc", "summary_of_the_method": "as §1"}, "[5]": {"target": "GalNAc(b1-3)Gal(a1-6)Gal(b1-4)Glc", "summary_of_the_method": "as §1"}, "GalNAc(b1-3)GalNAc": {"target": "GalNAc(b1-3)GalNAc", "summary_of_the_method": "as §1"}, "GalNAc(b1-3)GlcNAc": {"target": "GalNAc(b1-3)GlcNAc", "summary_of_the_method": "as §1"}, "GalNAc(b1-4)Gal(b1-4)Glc": {"target": "GalNAc(b1-4)Gal(b1-4)Glc", "summary_of_the_method": "as §1"}, "GalNAc(b1-4)GlcNAc": {"target": "GalNAc(b1-4)GlcNAc", "summary_of_the_method": "as §1"}, "[6]": {"target": "GalNAc(b1-4)GlcNAc(b1-2)Man", "summary_of_the_method": "as §1"}, "[7]": {"target": "GalNAc(b1-4)GlcNAc(b1-2)Man(a1-3)[GalNAc(b1-4)GlcNAc(b1-2)Man(a1-6)]Man(b1-4)GlcNAc(b1-4)GlcNAc", "summary_of_the_method": "as §1"}, "[8]": {"target": "GalNAc(b1-4)GlcNAc(b1-3)GalNAc(b1-4)GlcNAc", "summary_of_the_method": "as §1"}, "GalNAc(b1-4)GlcNAc6S": {"target": "GalNAc(b1-4)GlcNAc6S", "summary_of_the_method": "as §1"}, "GalNAc(b1-6)GalNAc": {"target": "GalNAc(b1-6)GalNAc", "summary_of_the_method": "as §1"}, "GalNAc3S(b1-4)GlcNAc": {"target": "GalNAc3S(b1-4)GlcNAc", "summary_of_the_method": "as §1"}, "GalNAc3S(b1-4)GlcNAc3S": {"target": "GalNAc3S(b1-4)GlcNAc3S", "summary_of_the_method": "as §1"}, "[9]": {"target": "GalNAc3S(b1-4)[Fuc(a1-3)]GlcNAc", "summary_of_the_method": "as §1"}, "GalNAc4S6S(b1-4)GlcNAc": {"target": "GalNAc4S6S(b1-4)GlcNAc", "summary_of_the_method": "as §1"}, "GalNAc6S(b1-4)GlcNAc": {"target": "GalNAc6S(b1-4)GlcNAc", "summary_of_the_method": "as §1"}, "Glc(a1-4)Glc": {"target": "Glc(a1-4)Glc", "summary_of_the_method": "as §1"}, "[10]": {"target": "Glc(a1-4)Glc(a1-4)Glc(a1-4)Glc", "summary_of_the_method": "as §1"}, "Glc(a1-6)Glc(a1-6)Glc": {"target": "Glc(a1-6)Glc(a1-6)Glc", "summary_of_the_method": "as §1"}, "[11]": {"target": "Glc(a1-6)Glc(a1-6)Glc(a1-6)Glc", "summary_of_the_method": "as §1"}}, "note": "The other results are listed elsewhere or left out.", "data": [{"binder": "SP16664B-bot-474-25-474 (Bacteroides ovatus) (protein) CEEDIEIGNKIDESSYLASTQLSGLLLDENTNKNSSVIELRNNEYSTNVVFRLSKLPQKGVDVQIAVEESYAAIYNTIHETDFEVFPAANVKIANNGTFVLAPDDKVTPSVKVTLTAFDGMEEDKTYIVPLTVTSSTEGVTFTETSKHMVLLVQDYRNKPNTNKGEDAVQTVLYFEVNDTNPLNALEFLTESGKYFFDHIVLFAANINWDPEKQRVYLANNENVQFLLDNNDKYLQPLRKAGMKIIISILGNHDEAGVAQLSDMGAREFARELAAYCRAYNLDGVAFDDEYSNSPDLSNPWLASPSAYAGSRLMYECKAVMPEKIVSLYNLGNMYSSSLQVIDGIEPGQYCDYAVADYGGAAGPGTGMTLKQCAGMSIELRRGSGNSSESTARSRKEAGYGYYMFFALDPSLYGSQVYRCQSVCKGLYDETLVYPSYYYKKNSTEREAIN", "values": [{"measurement": "glycan array binding signal (z-score)", "setting": "Gal3S4S(b1-4)GlcNAc", "value": 0.303}, {"measurement": "glycan array binding signal (z-score)", "setting": "Gal3S6S(b1-4)GlcNAc", "value": 0.516}, {"measurement": "glycan array binding signal (z-score)", "setting": "Gal3S6S(b1-4)GlcNAc6S", "value": -0.535}, {"measurement": "glycan array binding signal (z-score)", "setting": "Gal4S(b1-4)GlcNAc", "value": -0.032}, {"measurement": "glycan array binding signal (z-score)", "setting": "Gal4S6S(b1-4)GlcNAc", "value": -0.008}, {"measurement": "glycan array binding signal (z-score)", "setting": "Gal6P(b1-4)GlcNAc", "value": 0.641}, {"measurement": "glycan array binding signal (z-score)", "setting": "Gal6S(b1-3)GlcNAc", "value": 0.118}, {"measurement": "glycan array binding signal (z-score)", "setting": "Gal6S(b1-3)GlcNAc6S", "value": 0.522}, {"measurement": "glycan array binding signal (z-score)", "setting": "Gal6S(b1-4)Glc", "value": -0.453}, {"measurement": "glycan array binding signal (z-score)", "setting": "Gal6S(b1-4)Glc6S", "value": 0.797}, {"measurement": "glycan array binding signal (z-score)", "setting": "Gal6S(b1-4)GlcNAc", "value": -0.557}, {"measurement": "glycan array binding signal (z-score)", "setting": "Gal6S(b1-4)GlcNAc6S", "value": -0.289}, {"measurement": "glycan array binding signal (z-score)", "setting": "GalNAc(a1-3)Gal", "value": -0.082}, {"measurement": "glycan array binding signal (z-score)", "setting": "GalNAc(a1-3)GalNAc", "value": -0.365}, {"measurement": "glycan array binding signal (z-score)", "setting": "[1]", "value": -0.271}, {"measurement": "glycan array binding signal (z-score)", "setting": "[2]", "value": 0.035}, {"measurement": "glycan array binding signal (z-score)", "setting": "GalNAc(b1-3)Gal", "value": 0.373}, {"measurement": "glycan array binding signal (z-score)", "setting": "[3]", "value": -0.347}, {"measurement": "glycan array binding signal (z-score)", "setting": "[4]", "value": 0.947}, {"measurement": "glycan array binding signal (z-score)", "setting": "[5]", "value": -0.265}, {"measurement": "glycan array binding signal (z-score)", "setting": "GalNAc(b1-3)GalNAc", "value": -0.311}, {"measurement": "glycan array binding signal (z-score)", "setting": "GalNAc(b1-3)GlcNAc", "value": -0.011}, {"measurement": "glycan array binding signal (z-score)", "setting": "GalNAc(b1-4)Gal(b1-4)Glc", "value": 0.293}, {"measurement": "glycan array binding signal (z-score)", "setting": "GalNAc(b1-4)GlcNAc", "value": -0.424}, {"measurement": "glycan array binding signal (z-score)", "setting": "[6]", "value": -0.234}, {"measurement": "glycan array binding signal (z-score)", "setting": "[7]", "value": 0.818}, {"measurement": "glycan array binding signal (z-score)", "setting": "[8]", "value": -0.437}, {"measurement": "glycan array binding signal (z-score)", "setting": "GalNAc(b1-4)GlcNAc6S", "value": -0.249}, {"measurement": "glycan array binding signal (z-score)", "setting": "GalNAc(b1-6)GalNAc", "value": -0.071}, {"measurement": "glycan array binding signal (z-score)", "setting": "GalNAc3S(b1-4)GlcNAc", "value": -0.167}, {"measurement": "glycan array binding signal (z-score)", "setting": "GalNAc3S(b1-4)GlcNAc3S", "value": -0.554}, {"measurement": "glycan array binding signal (z-score)", "setting": "[9]", "value": -0.102}, {"measurement": "glycan array binding signal (z-score)", "setting": "GalNAc4S6S(b1-4)GlcNAc", "value": -0.156}, {"measurement": "glycan array binding signal (z-score)", "setting": "GalNAc6S(b1-4)GlcNAc", "value": -0.167}, {"measurement": "glycan array binding signal (z-score)", "setting": "Glc(a1-4)Glc", "value": -0.119}, {"measurement": "glycan array binding signal (z-score)", "setting": "[10]", "value": 0.723}, {"measurement": "glycan array binding signal (z-score)", "setting": "Glc(a1-6)Glc(a1-6)Glc", "value": -0.366}, {"measurement": "glycan array binding signal (z-score)", "setting": "[11]", "value": 0.206}]}]}
